Reference: patent publication US9023789B2, “Amylin analogs and pharmaceutical compositions thereof” (Novo Nordisk A/S, priority 2012, dated 2015)
At least one read-out could not be matched to a standard name with certainty. Numbered stars: 1 amine (or outer) side, 2 acyl side, 3 side chain; on linkers, the order of the positions; unused ones are H or OH. Bridge positions count the residues as written; N and C are the ends. Side chains are listed from the residue outwards. Peptide text beside a SMILES is read from it. * marks the point of attachment. C20 diacid = O=C(O)CCCCCCCCCCCCCCCCCCC(=O)*; γGlu = O=C(O)[C@H](CCC(=O)[*:2])N[*:1]; AEEA = NCCOCCOCC(=O)O

Assay: ASSAY (III) ThT fibrillation assay for physical stability
Type: physicochemical
Procedure, shortened: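 Formulations with 1 μM ThT, pH adjusted as required, incubated at 37 °C with 960 rpm orbital shaking; fluorescence (ex 444/em 485 nm) read every 20 min. Fibrillation reported as mean ThT fluorescence ± SD of 4–8 replicates at time points; polypeptide concentration measured by reverse-phase HPLC before and after, post-centrifugation.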
For `CC[C@H](C)[C@H](NC(=O)[C@H](C)NC(=O)CNC(=O)[C@H](Cc1ccccc1)NC(=O)[C@H](CC(N)=O)NC(=O)[C@@H]1CCCN1C(=O)[C@H](CO)NC(=O)[C@H](CO)NC(=O)[C@H](Cc1c[nH]cn1)NC(=O)[C@H](CCCNC(=N)N)NC(=O)[C@H](CC(C)C)NC(=O)[C@H](Cc1ccccc1)NC(=O)[C@H](CC(N)=O)NC(=O)[C@H](C)NC(=O)[C@H](CC(C)C)NC(=O)[C@H](CCCNC(=N)N)NC(=O)[C@H](CCC(N)=O)NC(=O)[C@@H](NC(=O)[C@H](C)NC(=O)[C@@H]1CSSC[C@H](NC(=O)[C@@H](N)CCCCNC(=O)COCCOCCNC(=O)CC[C@H](NC(=O)CCCCCCCCCCCCCCCCCCC(=O)O)C(=O)O)C(=O)N[C@@H](CC(N)=O)C(=O)N[C@@H]([C@@H](C)O)C(=O)N[C@@H](C)C(=O)N[C@@H]([C@@H](C)O)C(=O)N1)[C@@H](C)O)C(=O)N1CCC[C@H]1C(=O)N[C@@H](CO)C(=O)N1CCC[C@H]1C(=O)N[C@H](C(=O)N[C@@H](CC(N)=O)C(=O)N[C@H](C(=O)NCC(=O)N1CCC[C@H]1C(=O)N[C@@H](CC(N)=O)C(=O)N[C@H](C(=O)N[C@@H](Cc1ccc(O)cc1)C(N)=O)[C@@H](C)O)C(C)C)[C@@H](C)O` [Example 56] (H-K([AEEA-γGlu-C20 diacid])CNTATCATQRLANFLRHSSPNFGAIPSPTNVGPNTY-NH2; disulfide 2-7 (inferred); N-terminus assumed), the “ThT pH 4.0 recovery (%)” value was 0%. For `CC[C@H](C)[C@H](NC(=O)[C@H](C)NC(=O)CNC(=O)[C@H](Cc1ccccc1)NC(=O)[C@H](CC(N)=O)NC(=O)[C@@H]1CCCN1C(=O)[C@H](CO)NC(=O)[C@H](CO)NC(=O)[C@H](Cc1c[nH]cn1)NC(=O)[C@H](CCCNC(=N)N)NC(=O)[C@H](CC(C)C)NC(=O)[C@H](Cc1ccccc1)NC(=O)[C@H](CC(N)=O)NC(=O)[C@H](C)NC(=O)[C@H](CC(C)C)NC(=O)[C@H](CCCNC(=N)N)NC(=O)[C@H](CCC(N)=O)NC(=O)[C@@H](NC(=O)[C@H](C)NC(=O)[C@@H]1CSSC[C@H](NC(=O)[C@@H](N)CCCCNC(=O)COCCOCCNC(=O)CC[C@H](NC(=O)CCCCCCCCCCCCCCCCCCC(=O)O)C(=O)O)C(=O)N[C@@H](CC(N)=O)C(=O)N[C@@H]([C@@H](C)O)C(=O)N[C@@H](C)C(=O)N[C@@H]([C@@H](C)O)C(=O)N1)[C@@H](C)O)C(=O)N1CCC[C@H]1C(=O)N[C@@H](CO)C(=O)N[C@@H](CO)C(=O)N[C@H](C(=O)N1CCC[C@H]1C(=O)N[C@H](C(=O)NCC(=O)N[C@@H](CO)C(=O)N[C@@H](Cc1c[nH]cn1)C(=O)N[C@H](C(=O)N[C@@H](Cc1ccc(O)cc1)C(N)=O)[C@@H](C)O)C(C)C)[C@@H](C)O` [Example 57] (H-K([AEEA-γGlu-C20 diacid])CNTATCATQRLANFLRHSSPNFGAIPSSTPVGSHTY-NH2; disulfide 2-7; N-terminus assumed), the “ThT pH 4.0 recovery (%)” value was 86%. In the case of `CC[C@H](C)[C@H](NC(=O)[C@H](C)NC(=O)CNC(=O)[C@H](Cc1ccccc1)NC(=O)[C@H](CC(N)=O)NC(=O)[C@@H]1CCCN1C(=O)[C@H](CO)NC(=O)[C@H](CO)NC(=O)[C@H](Cc1c[nH]cn1)NC(=O)[C@H](CCCNC(=N)N)NC(=O)[C@H](CC(C)C)NC(=O)[C@H](Cc1ccccc1)NC(=O)[C@H](CC(N)=O)NC(=O)[C@H](C)NC(=O)[C@H](CC(C)C)NC(=O)[C@H](CCCNC(=N)N)NC(=O)[C@H](CCC(N)=O)NC(=O)[C@@H](NC(=O)[C@H](C)NC(=O)[C@@H]1CSSC[C@H](NC(=O)[C@@H](N)CCCCNC(=O)COCCOCCNC(=O)CC[C@H](NC(=O)CCCCCCCCCCCCCCCCCCC(=O)O)C(=O)O)C(=O)N[C@@H](CC(N)=O)C(=O)N[C@@H]([C@@H](C)O)C(=O)N[C@@H](C)C(=O)N[C@@H]([C@@H](C)O)C(=O)N1)[C@@H](C)O)C(=O)N1CCC[C@H]1C(=O)N[C@@H](CO)C(=O)N[C@@H](CO)C(=O)N[C@H](C(=O)N[C@@H](CC(N)=O)C(=O)N[C@H](C(=O)NCC(=O)N1CCC[C@H]1C(=O)N[C@@H](Cc1c[nH]cn1)C(=O)N[C@H](C(=O)N[C@@H](Cc1ccc(O)cc1)C(N)=O)[C@@H](C)O)C(C)C)[C@@H](C)O` [Example 58] (H-K([AEEA-γGlu-C20 diacid])CNTATCATQRLANFLRHSSPNFGAIPSSTNVGPHTY-NH2; disulfide 2-7), the “ThT pH 4.0 recovery (%)” value is reported as 86%. For `CC[C@H](C)[C@H](NC(=O)[C@H](C)NC(=O)CNC(=O)[C@H](Cc1ccccc1)NC(=O)[C@H](CC(N)=O)NC(=O)[C@H](CCCCNC(=O)CC[C@H](NC(=O)CC[C@H](NC(=O)CCCCCCCCCCCCCCCCCCC(=O)O)C(=O)O)C(=O)O)NC(=O)[C@H](CO)NC(=O)[C@H](CO)NC(=O)[C@H](Cc1c[nH]cn1)NC(=O)[C@H](CCCNC(=N)N)NC(=O)[C@H](CC(C)C)NC(=O)[C@H](Cc1ccccc1)NC(=O)[C@H](CC(=O)O)NC(=O)[C@H](C)NC(=O)[C@H](CC(C)C)NC(=O)[C@H](CCCNC(=N)N)NC(=O)[C@H](CCC(N)=O)NC(=O)[C@@H](NC(=O)[C@H](C)NC(=O)[C@@H]1CSSC[C@H](NC(=O)[C@@H](N)CCCCN)C(=O)N[C@@H](CC(N)=O)C(=O)N[C@@H]([C@@H](C)O)C(=O)N[C@@H](C)C(=O)N[C@@H]([C@@H](C)O)C(=O)N1)[C@@H](C)O)C(=O)N1CCC[C@H]1C(=O)N[C@@H](CO)C(=O)N[C@@H](CO)C(=O)N[C@H](C(=O)N[C@@H](CC(N)=O)C(=O)N[C@H](C(=O)NCC(=O)N[C@@H](CO)C(=O)N[C@@H](CC(=O)O)C(=O)N[C@H](C(=O)N[C@@H](Cc1ccc(O)cc1)C(N)=O)[C@@H](C)O)C(C)C)[C@@H](C)O` [Example 59] (H-KCNTATCATQRLADFLRHSSK([γGlu-γGlu-C20 diacid])NFGAIPSSTNVGSDTY-NH2; disulfide 2-7; N-terminus assumed), the “ThT pH 4.0 recovery (%)” value was 5%. For `CC[C@H](C)[C@H](NC(=O)[C@H](C)NC(=O)CNC(=O)[C@H](Cc1ccccc1)NC(=O)[C@H](CC(N)=O)NC(=O)[C@@H]1CCCN1C(=O)[C@H](CO)NC(=O)[C@H](CO)NC(=O)[C@H](Cc1c[nH]cn1)NC(=O)[C@H](CCCNC(=N)N)NC(=O)[C@H](CC(C)C)NC(=O)[C@H](Cc1ccccc1)NC(=O)[C@H](CC(N)=O)NC(=O)[C@H](C)NC(=O)[C@H](CC(C)C)NC(=O)[C@H](CCCNC(=N)N)NC(=O)[C@H](CCC(N)=O)NC(=O)[C@@H](NC(=O)[C@H](C)NC(=O)[C@@H]1CSSC[C@H](NC(=O)[C@@H](N)CCCCNC(=O)CC[C@H](NC(=O)CCCCCCCCCCCCCCCCCCC(=O)O)C(=O)O)C(=O)N[C@@H](CC(N)=O)C(=O)N[C@@H]([C@@H](C)O)C(=O)N[C@@H](C)C(=O)N[C@@H]([C@@H](C)O)C(=O)N1)[C@@H](C)O)C(=O)N1CCC[C@H]1C(=O)N[C@@H](CO)C(=O)N[C@@H](CO)C(=O)N[C@H](C(=O)N[C@@H](CC(N)=O)C(=O)N[C@H](C(=O)NCC(=O)N[C@@H](CO)C(=O)N[C@@H](Cc1c[nH]cn1)C(=O)N[C@H](C(=O)N[C@@H](Cc1ccc(O)cc1)C(N)=O)[C@@H](C)O)C(C)C)[C@@H](C)O` [Example 60], the “ThT pH 4.0 recovery (%)” value was 92%. In the case of `CC[C@H](C)[C@H](NC(=O)[C@H](C)NC(=O)CNC(=O)[C@H](Cc1ccccc1)NC(=O)[C@H](CC(N)=O)NC(=O)[C@@H]1CCCN1C(=O)[C@H](CO)NC(=O)[C@H](CO)NC(=O)[C@H](Cc1c[nH]cn1)NC(=O)[C@H](CCCNC(=N)N)NC(=O)[C@H](CC(C)C)NC(=O)[C@H](Cc1ccccc1)NC(=O)[C@H](Cc1c[nH]cn1)NC(=O)[C@H](C)NC(=O)[C@H](CC(C)C)NC(=O)[C@H](CCCNC(=N)N)NC(=O)[C@H](CCC(N)=O)NC(=O)[C@@H](NC(=O)[C@H](C)NC(=O)[C@@H]1CSSC[C@H](NC(=O)[C@@H](N)CCCCNC(=O)COCCOCCNC(=O)CC[C@H](NC(=O)CCCCCCCCCCCCCCCCCCC(=O)O)C(=O)O)C(=O)N[C@@H](CC(N)=O)C(=O)N[C@@H]([C@@H](C)O)C(=O)N[C@@H](C)C(=O)N[C@@H]([C@@H](C)O)C(=O)N1)[C@@H](C)O)C(=O)N1CCC[C@H]1C(=O)N[C@@H](CO)C(=O)N[C@@H](CO)C(=O)N[C@H](C(=O)N1CCC[C@H]1C(=O)N[C@H](C(=O)NCC(=O)N[C@@H](CO)C(=O)N[C@@H](CC(N)=O)C(=O)N[C@H](C(=O)N[C@@H](Cc1ccc(O)cc1)C(N)=O)[C@@H](C)O)C(C)C)[C@@H](C)O` [Example 61] (H-K([AEEA-γGlu-C20 diacid])CNTATCATQRLAHFLRHSSPNFGAIPSSTPVGSNTY-NH2; disulfide 2-7 (inferred)), the “ThT pH 4.0 recovery (%)” value is reported as 92%. In the case of `CC[C@H](C)[C@H](NC(=O)[C@H](C)NC(=O)CNC(=O)[C@H](Cc1ccccc1)NC(=O)[C@H](CC(N)=O)NC(=O)[C@@H]1CCCN1C(=O)[C@H](CO)NC(=O)[C@H](CO)NC(=O)[C@H](Cc1c[nH]cn1)NC(=O)[C@H](CCCNC(=N)N)NC(=O)[C@H](CC(C)C)NC(=O)[C@H](Cc1ccccc1)NC(=O)[C@H](Cc1c[nH]cn1)NC(=O)[C@H](C)NC(=O)[C@H](CC(C)C)NC(=O)[C@H](CCCNC(=N)N)NC(=O)[C@H](CCC(N)=O)NC(=O)[C@@H](NC(=O)[C@H](C)NC(=O)[C@@H]1CSSC[C@H](NC(=O)[C@@H](N)CCCCNC(=O)CC[C@H](NC(=O)CCCCCCCCCCCCCCCCCCC(=O)O)C(=O)O)C(=O)N[C@@H](CC(N)=O)C(=O)N[C@@H]([C@@H](C)O)C(=O)N[C@@H](C)C(=O)N[C@@H]([C@@H](C)O)C(=O)N1)[C@@H](C)O)C(=O)N1CCC[C@H]1C(=O)N[C@@H](CO)C(=O)N[C@@H](CO)C(=O)N[C@H](C(=O)N1CCC[C@H]1C(=O)N[C@H](C(=O)NCC(=O)N[C@@H](CO)C(=O)N[C@@H](CC(N)=O)C(=O)N[C@H](C(=O)N[C@@H](Cc1ccc(O)cc1)C(N)=O)[C@@H](C)O)C(C)C)[C@@H](C)O` [Example 62] (H-K([γGlu-C20 diacid])CNTATCATQRLAHFLRHSSPNFGAIPSSTPVGSNTY-NH2; disulfide 2-7; N-terminus assumed), the “ThT pH 4.0 recovery (%)” value is reported as 92%.
